Results published in publication PMC4336329 (PLoS ONE, 2015).
Screen size: about 310,000 compounds; about 2,200 (0.71%) showed an effect of 50% or more. Effects have a minus sign here. The list shows a part of the results.

Target: human ether-à-go-go-related gene (hERG) potassium channel (human, UniProt Q12809)
Assay: primary screen, population patch clamp on CHO cells stably expressing hERG

Chain of human ether-à-go-go-related gene (hERG) potassium channel (Q12809 whole entry, looked up): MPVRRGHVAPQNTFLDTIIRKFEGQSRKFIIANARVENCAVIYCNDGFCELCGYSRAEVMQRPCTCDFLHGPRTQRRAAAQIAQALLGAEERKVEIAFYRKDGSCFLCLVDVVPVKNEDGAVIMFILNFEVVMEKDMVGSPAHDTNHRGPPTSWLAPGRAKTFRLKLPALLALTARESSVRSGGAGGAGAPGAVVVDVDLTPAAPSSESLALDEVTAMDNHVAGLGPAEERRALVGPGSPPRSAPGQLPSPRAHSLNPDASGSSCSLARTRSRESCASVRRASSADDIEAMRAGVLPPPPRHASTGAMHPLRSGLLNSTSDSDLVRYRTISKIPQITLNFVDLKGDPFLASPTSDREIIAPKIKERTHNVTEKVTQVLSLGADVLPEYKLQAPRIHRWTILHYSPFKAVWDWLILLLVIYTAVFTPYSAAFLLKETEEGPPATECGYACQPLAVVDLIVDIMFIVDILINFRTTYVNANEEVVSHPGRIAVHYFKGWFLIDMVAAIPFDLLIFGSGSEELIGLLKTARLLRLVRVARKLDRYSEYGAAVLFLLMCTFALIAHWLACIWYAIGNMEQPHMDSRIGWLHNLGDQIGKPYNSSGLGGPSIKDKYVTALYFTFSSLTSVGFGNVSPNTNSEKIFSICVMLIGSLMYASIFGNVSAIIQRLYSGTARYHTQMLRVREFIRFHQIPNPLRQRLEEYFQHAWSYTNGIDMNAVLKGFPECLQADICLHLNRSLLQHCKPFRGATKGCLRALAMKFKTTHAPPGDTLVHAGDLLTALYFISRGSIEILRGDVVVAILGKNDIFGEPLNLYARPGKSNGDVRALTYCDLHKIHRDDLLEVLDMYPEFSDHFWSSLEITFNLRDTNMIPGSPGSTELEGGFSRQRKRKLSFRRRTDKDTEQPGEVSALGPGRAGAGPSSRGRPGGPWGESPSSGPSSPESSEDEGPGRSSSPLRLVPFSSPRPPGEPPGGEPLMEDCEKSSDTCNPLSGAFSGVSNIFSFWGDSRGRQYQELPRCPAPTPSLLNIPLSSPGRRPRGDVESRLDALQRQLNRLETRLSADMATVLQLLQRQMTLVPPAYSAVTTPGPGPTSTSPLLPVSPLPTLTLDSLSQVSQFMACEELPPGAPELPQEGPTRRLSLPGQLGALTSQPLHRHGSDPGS

Row | SMILES | hERG current change (%, negative = inhibition) at 1uM [%]
1 | CC(C)(C)c1ccc(Oc2ncccc2NC(=O)c2cccs2)cc1 | 11.1
2 | CCC(c1nnnn1Cc1ccco1)N1CCN(C(=O)c2ccco2)CC1.Cl (centres unmarked) | -0.369
3 | CN(c1ccccc1C(=O)O)S(C)(=O)=O | 17.2
4 | CC1=NNC(=O)C1CCC(=O)N/N=C/c1ccc(Cl)cc1 (centres unmarked) | 21
5 | Cc1c(Cl)cccc1NC(=O)Nc1cnccn1 | 15.3
6 | O=C(Cc1ccsc1)NNC(=O)c1ccccc1Cl | 7.87
7 | O=C(NCCCc1ccccc1)Nc1cccc(Cl)c1 | 7.97
8 | Clc1cc(Cl)cc(CSc2nnc(-c3sccc3-n3cccc3)o2)c1 | 4.3
9 | CC(NC(=O)CN(C)CC(=O)Nc1ccc(F)c(F)c1F)c1ccccc1 (centres unmarked) | 3.74
10 | O=C1CC(/C=C/c2ccccn2)=Nc2ccccc2N1 | 2.14
11 | CC1=C(C(N)=O)C(c2ccccc2[N+](=O)[O-])n2ncnc2N1 (centres unmarked) | 3
12 | CC(=O)c1ccc(NC(=O)c2ccccc2-c2ccccc2C(=O)O)cc1 | 17.5
13 | CN(C)CCCN(Cc1ccccc1)C(=S)Nc1cccc(C(F)(F)F)c1 | -7.56
14 | CC(C)CCOc1ccc(C(=O)O)cc1 | 16
15 | CCOC(CNC(=O)CN1C(=O)COc2ccc(S(=O)(=O)N3CC(C)CC(C)C3)cc21)OCC (centres unmarked) | 12
16 | CCOC(=O)CC1C(=O)NCCN1S(=O)(=O)c1cc(Cl)c(Cl)cc1Cl (centres unmarked) | -4.46
17 | COC(=O)C(C)N(C(=O)c1ccc(C(=O)c2ccccc2)cc1)c1c(C)cccc1C (centres unmarked) | -15.7
18 | O=C(C1CC1)N1CCN(c2nc3ccccc3s2)CC1 | 6.31
19 | N#Cc1ccccc1Sc1ccccc1C(=O)OCC(=O)NC1CCS(=O)(=O)C1 (centres unmarked) | 19.5
20 | CC(C)c1ccc(OCC(=O)NNC(=O)c2cnccn2)cc1 | 13
21 | CCN1CCN(S(=O)(=O)c2ccc(-c3cc(C)no3)s2)CC1 | 11.2
22 | Cc1ccc(NC(=O)COC(=O)Cn2nc(C)c([N+](=O)[O-])c2C)c([N+](=O)[O-])c1 | 14.6
23 | OCC(Cc1ccccc1)Nc1c2ccccc2nc2ccccc12 (centres unmarked) | -38.8

Row | SMILES | hERG current change (%, negative = inhibition) at 1uM [%]
24 | Cl.NCC12CC3CC(CC(O)(C3)C1)C2 | 10.1
25 | CCCC(=O)Nc1cc2c3c(c1)CC(=O)N3CCC2 | -2.72
26 | Cc1cc(C)cc(NC(N)=S)c1 | 0.401
27 | COc1ccc(C2CC(c3c(-c4ccccc4)c4cc(Cl)ccc4[nH]c3=O)=NN2S(C)(=O)=O)cc1 (centres unmarked) | 10.3
28 | Cc1ccc(OCC(=O)NC2CCSc3ccccc32)cc1 (centres unmarked) | 10.5
29 | S=c1nc[nH]c2c1sc1nc(N3CCOCC3)c3c(c12)CCCC3 | 7.57
30 | NS(=O)(=O)c1cccc(NC(=O)CNC(=O)CC23CC4CC(CC(C4)C2)C3)c1 | 9.32
31 | CCOc1ccc2nc(NC(=O)c3cnccn3)sc2c1 | -2.59
32 | CC1CCC2C(=O)N(c3ccc(Cc4ccncc4)cc3)C(=O)C2C1 (centres unmarked) | 7.58
33 | Cc1cc(C)cc(NC(=S)/C(=C(\[O-])c2ccc(Cl)cc2Cl)[n+]2ccccc2)c1 | 9.82
34 | CC(C)(C)c1cc(NS(=O)(=O)c2cccs2)no1 | 18.4
35 | O=C(O)c1ccc2c(c1)C(=O)N(CCCCCCCN1C(=O)c3ccc(C(=O)O)cc3C1=O)C2=O | 16.5
36 | CC1(C)Cc2ccccc2C2=NNC(=O)C2=N1 | 4.15
37 | COc1ccccc1OCC(=O)/C=C1/N(C)c2ccccc2C1(C)C | 2.4
38 | Cn1c(C(=O)N(Cc2ccccc2)Cc2cccs2)cc2sccc21 | 19.7
39 | C=CCN1C(=O)c2ccc(C(=O)NCCOc3ccccc3F)cc2C1=O | -5.52
40 | C=CCNCCCCOc1ccccc1-c1ccccc1.O=C(O)C(=O)O | 0.375
41 | O=C(Oc1ccccc1C(=S)N1CCCCC1)c1cc([N+](=O)[O-])cc([N+](=O)[O-])c1 | 1.09
42 | COc1ccc(OC)c(NC(=O)c2sc3ncnc(N4CCN(c5ccccn5)CC4)c3c2C)c1 | 3.06
43 | O=CN1Cc2[nH]c3ccccc3c2N(c2ccc(Cl)cc2)C1=O | 3.72
44 | Cc1nn(-c2ncc(C(F)(F)F)cc2Cl)c(=O)n1-c1ccccc1 | 19.5
45 | COc1ccc(C(=O)NCCCNC(=O)c2ccco2)cc1OC | 12.2
46 | Cc1ccccc1CSc1nc(C(C)(C)C)cc(=O)[nH]1 | 10.3

Row | SMILES | hERG current change (%, negative = inhibition) at 1uM [%]
47 | C/C(=N\NC(=O)CC1N=C(Cc2ccccc2)NNC1=O)c1ccc(C)cc1 (centres unmarked) | 2.24
48 | Cc1nnc(SCc2cccc3ccccc23)s1 | 0.214
49 | O=C(CSc1ccc2nnc(CCNC(=O)c3ccccc3)n2n1)NCCc1ccccc1 | 9.32
50 | Cl.NCCCC[C@@H](C(=O)N1CCNCC1)n1cc([C@@H](N)CO)nn1 | 12.1
51 | CC1=NNC(=O)C1CCC(=O)N/N=C(\C)c1ccccc1 (centres unmarked) | 19.4
52 | CCn1c(SCC(=O)NCC2CCCO2)nc2cc(S(=O)(=O)N3CCCCC3)ccc21 (centres unmarked) | -3.14
53 | COc1ccc(OC)c(-n2nnnc2SCC(=O)Nc2nc(C)c(C)s2)c1 | -0.808
54 | O=C(O)[C@H](Cc1ccccc1)NC(=O)N1CCN(c2cccc(C(F)(F)F)c2)CC1 | 17.6
55 | COc1ccc(OC)c(NC(=O)C(CC(=O)O)NCc2ccco2)c1 (centres unmarked) | 19.6
56 | COc1ccc2c(CC(=O)OCC(=O)Nc3sc4c(c3C#N)CCC(C)C4)coc2c1 (centres unmarked) | 2.99
57 | Cc1ccc2c(c1)CC1(CN2C)C(=O)NC(=O)N(c2ccc(C)c(C)c2)C1=O (centres unmarked) | -5.95
58 | CCC1CCCCN1CCCNS(=O)(=O)c1ccc2c(c1)oc(=O)n2C (centres unmarked) | 4.98
59 | CC(NCC(O)COc1ccc(Br)cc1)c1ccccc1.Cl (centres unmarked) | 3.95
60 | Cc1oc2cc(OC(=O)c3ccco3)ccc2c(=O)c1-c1nc2ccccc2n1C | 3.42
61 | CC(C)OC(=O)Cn1nnc(-c2ccccc2)n1 | 8.29
62 | COc1ccc(NC(=O)c2cc([N+](=O)[O-])ccc2N2CCCC2)cc1 | 13.9
63 | COc1ccc(NC(=S)NC(NC(=O)c2ccc(Cl)cc2Cl)C(Cl)(Cl)Cl)c([N+](=O)[O-])c1 (centres unmarked) | 18
64 | CC(C)(C)C(=O)Nc1ccc(-c2csnn2)cc1 | 7.72
65 | O=C(O)CNc1ccc(S(=O)(=O)C(F)(F)F)cc1[N+](=O)[O-] | 3.17
66 | Cc1ccc(C(=O)N2C3C=CC(C3)C2(C(F)(F)F)C(F)(F)F)cc1 (centres unmarked) | -0.174
67 | CC(=O)NC(CSc1cc(C)nc2ccc(Br)cc12)C(=O)O (centres unmarked) | 15
68 | CCOC(=O)C1CCCN(CC(O)COCc2ccc3c(c2)OCO3)C1 (centres unmarked) | 1.42
69 | CN1c2ccccc2C(=O)/C(=C\Nc2ncccn2)S1(=O)=O | 13.7

Row | SMILES | hERG current change (%, negative = inhibition) at 1uM [%]
70 | COC(=O)CCCC(=O)N1CCCC(N(C)CCc2ccccc2)C1 (centres unmarked) | -4.11
71 | O=C(O)c1ccc2nnn(O)c2c1 | -1.73
72 | O=C(CCC(=O)N1CCN(c2ccc(C(F)(F)F)cn2)CC1)c1cccs1 | 7.94
73 | Cc1occc1-c1nnc(SCC(=O)Nc2ccccc2)n1CCc1ccccc1 | -20.1
74 | CCOCC(=O)N1CCC(Cc2ccccc2)CC1 | -39.6
75 | CCOc1ccc(N2C(=O)CC(N(CCc3ccc(S(N)(=O)=O)cc3)C(C)=O)C2=O)cc1 (centres unmarked) | 12.5
76 | COC(=O)c1sc(NC(=O)/C=C/c2ccccc2Cl)nc1C | 9.5
77 | O=C(O)CCc1ccc(-c2ccccc2)o1 | -0.494
78 | COc1ccc(C2CC(c3ccccc3)=NN2c2ccc(S(N)(=O)=O)cc2)cc1OC (centres unmarked) | 7.52
79 | CC(C)[C@H](NC(=O)c1ccccc1Cl)C(=O)NC1CCCCCC1 | 9.93
80 | O=C(O)c1cc2c(s1)CCCC2 | 16.6
81 | C=C(C)CN(CC)C(=O)CN1C(=O)NC2(CCc3ccccc32)C1=O (centres unmarked) | 15.3
82 | CCC1Sc2ccc(S(=O)(=O)N3CCN(c4ccccc4)CC3)cc2NC1=O (centres unmarked) | 13.9
83 | Cc1ccc(C)c(NC(=O)CSc2nc3[nH]ncc3c(=O)[nH]2)c1 | 5.1
84 | C/C(=N\OC(=O)c1ccccc1)c1cc(-c2ccc(Cl)cc2)no1 | 3.43
85 | Cc1cc(N2CC(C(=O)NCc3cccs3)CC2=O)ccc1C(C)C (centres unmarked) | -0.511
86 | COc1cc2ccccc2cc1C(=O)NC1CCCCC1 | 1.8
87 | COC(=O)CNC(=O)CCc1nnc(C2(c3ccc(Cl)cc3)CCC2)o1 | 0.917
88 | CC(=O)[C@]1(O)Cc2c(O)c3c(c(O)c2[C@@H](O[C@H]2C[C@H](N)[C@H](O)[C@H](C)O2)C1)C(=O)c1ccccc1C3=O.Cl | 8.91
89 | O=C(N=Nc1c(O)n(C2OC(=O)c3ccccc32)c2ccccc12)c1ccco1 (centres unmarked) | 9.45
